PubChem BioAssay AID686978 (National Center for Advancing Translational Sciences (NCATS), 2013)
Where “and” joins values, the source holds several entries; their conditions need not be identical. Identical values can stand only once. Out of some 420,000 compounds screened, about 64,000 (15%) were called active. This list was built around the results that the source calls inconclusive (neither active nor inactive); the mix of calls is not that of the screen. The call rests on the fitted dose curve; in most records, active means well fitted inhibition curve with a large enough effect; inconclusive means small, poorly fitted or top-dose-only effect; inactive means flat fitted curve, though single readings scatter. Where the call is inconclusive, the potency comes from a doubtful curve fit.

Test: qHTS for Inhibitors of human tyrosyl-DNA phosphodiesterase 1 (TDP1): qHTS in cells in absence of CPT; further: nearly all actives have a fitted effect of over 55% in size
Settings: DT40 Tdp1-/- hTDP1 cells, no CPT, ATP luminescence, 48 h; activity change, negative = growth inhibition: at 46.2 µM (top of the series) unless noted
Outline: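 Compound effects on proliferation are scored in DT40 Tdp1-/-;hTDP1 cells in the absence of CPT. ATP levels (CellTiter-Glo luminescence) are recorded after a ≥48 hr, 37 °C incubation.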
On the % scale 0 is the no-effect control and ±100 the full control effect; potency means the concentration at half of the fitted maximal effect; tags describe the fitted curve by direction and shape.

**Q.** Which activity change, negative = growth inhibition does the source give for `Cc1ccc(-n2ccnc(SCC(=O)NC3CCCC3)c2=O)cc1Cl` here?
**A.** inconclusive: -30.9% [inhibitor]

**Q.** With `CN1CC[C@H](CN2c3ccccc3Sc3ccccc32)C1` as the compound, how does the Potency read?
**A.** active: 12.6 µM

**Q.** With `CCOc1cc(C2CC(=O)N3CN(C4CCCCC4)CSC3=C2C#N)ccc1O` (stereo unspecified) as the compound, how does the Potency read?
**A.** inactive

**Q.** With `CCNC(=O)c1ccc(OCC(=O)Nc2ccc(F)cc2)c(OC)c1` as the compound, how does the Potency read?
**A.** inactive

**Q.** Which Potency does the source give for `Nc1nc2ccccc2n1S(=O)(=O)c1ccccc1` here?
**A.** inconclusive: 29.1 µM [inhibitor, single point]

**Q.** With `CCOc1ccc(/C=N/NC(=O)C(=O)N2CCCCCC2)c2ccccc12` as the compound, how does the Potency read?
**A.** inactive

**Q.** For `CNc1nc2c(N)ncnc2n1[C@H]1O[C@@H](CO)[C@H](O)[C@@H]1O`, which Potency is on record?
**A.** inconclusive: 14.6 µM [inhibitor, partial curve]

**Q.** Which Potency does the source give for `COc1c(C)cc(Br)cc1C(=O)Nc1ccc(C)cc1[N+](=O)[O-]` here?
**A.** active: 13 µM

**Q.** For `CSCCC1NC2(C(=O)Nc3ccc(Cl)cc32)[C@@H]2C(=O)N(C3CCCC3)C(=O)[C@H]12` (stereo partly specified), which Potency is on record?
**A.** active: 20.6 µM

**Q.** Which Potency does the source give for `COc1ccccc1CN1CCC(CNS(=O)(=O)c2cc(-c3cc(C)no3)ccc2C)CC1` here?
**A.** inconclusive: 29.1 µM [inhibitor, single point]

**Q.** With `CCN1CC=C2C(C#N)=C(N)C(C#N)(C#N)C(CCc3ccccc3)C2C1` (stereo unspecified) as the compound, how does the Potency read?
**A.** inconclusive: 29.1 µM [inhibitor, single point]

**Q.** For `CCOc1ccc(C(C)NC(=S)NCc2ccc(Cl)cc2)cc1` (stereo unspecified), which Potency is on record?
**A.** inconclusive: 29.1 µM [inhibitor, single point]

**Q.** With `CC(C)[C@H](NC(=O)N1CCn2c1nc1ccccc12)C(=O)NC1CC1` as the compound, how does the Potency read?
**A.** inactive

**Q.** With `CCNC(=O)C1(C)CCCN1C(=O)c1ccc2c(c1)OCO2` (stereo unspecified) as the compound, how does the Potency read?
**A.** inactive

**Q.** Which Potency does the source give for `Cc1c(C2CCN(CCc3ccccc3)CC2)noc1-c1ccc(Cl)cc1` here?
**A.** active: 11.9 µM and active: 9.2 µM

**Q.** For `N#C/C(=C\c1cn(CCOc2ccccc2F)c2ccccc12)C(=O)NCc1cccs1`, which Potency is on record?
**A.** inconclusive: 29.1 µM [inhibitor, single point]

**Q.** For `Cc1ccc(CN2CCC(NC(=O)c3ccccc3)CC2)cc1`, which Potency is on record?
**A.** active: 18.4 µM

**Q.** For `COc1ccccc1N1CCN(CCC(=O)Nc2cccc(F)c2)CC1`, which Potency is on record?
**A.** inconclusive: 29.1 µM [inhibitor, single point] and inconclusive: 20.6 µM [inhibitor, single point]

**Q.** Which Potency does the source give for `O=C(NC1CC1)C1=C[C@@H](c2ccc(C(F)(F)F)cc2)C[C@@H](OCc2ccc(CO)cc2)O1` here?
**A.** inconclusive: 18.4 µM [inhibitor, partial curve, poor fit]

**Q.** Which Potency does the source give for `O=C(NCc1cccnc1)c1ccc(S(=O)(=O)N2CCCCC2)cc1` here?
**A.** inconclusive: 23.1 µM [inhibitor, single point]

**Q.** For `CCOc1cc(CN2CCCC(CO)(Cc3ccc(F)cc3F)C2)ccc1OC` (stereo unspecified), which Potency is on record?
**A.** inactive

**Q.** For `COc1cc(C(=O)N2C[C@@H]3CCC[C@H]2C3)ccc1OC1CCN(C(C)=O)CC1`, which Potency is on record?
**A.** inactive

**Q.** Which Potency does the source give for `O=C(Cc1ccc(S(=O)(=O)N2CCOCC2)s1)N1CCN(S(=O)(=O)c2ccccc2[N+](=O)[O-])CC1` here?
**A.** inconclusive: 29.1 µM [inhibitor, single point]

**Q.** With `COC(=O)c1ccc(NC(=S)NNC(=O)c2ccccc2)cc1` as the compound, how does the Potency read?
**A.** inconclusive: 29.1 µM [inhibitor, single point]

**Q.** Which Potency does the source give for `CN1CC=C2C(C#N)=C(N)C(C#N)(C#N)C(Cc3ccccc3)C2C1` (stereo unspecified) here?
**A.** inconclusive: 23.1 µM [inhibitor, single point]

**Q.** For `CCc1ccc2c(c1)C(c1ccc([N+](=O)[O-])cc1)=NNC(c1ccccc1)=N2`, which Potency is on record?
**A.** inconclusive: 20.6 µM [inhibitor, single point]

**Q.** Which Potency does the source give for `O=C(Nc1ccc(Br)cc1Cl)c1cnn2c1NC(=C1CC1)C=C2C(F)F` here?
**A.** inactive

**Q.** Which Potency does the source give for `COc1ccc(C(C(=O)NC2CCCC2)N(Cc2cccnc2)C(=O)c2snc(C(N)=O)c2N)cc1OC` (stereo unspecified) here?
**A.** inactive

**Q.** With `CCN1C(=O)C(O)(C2COC(C)(C)CC2=O)c2cc(Br)ccc21` (stereo unspecified) as the compound, how does the Potency read?
**A.** active: 1.16 µM

**Q.** For `Cc1nn(-c2ccccc2)c(Cl)c1C(=O)Nc1nnc(C2CCCC2)s1`, which activity change, negative = growth inhibition is on record?
**A.** inconclusive: -32% [inhibitor]

**Q.** With `Cc1c(C(=O)NCc2cccc([N+](=O)[O-])c2)sc(=O)n1Cc1ccc(F)cc1` as the compound, how does the Potency read?
**A.** inconclusive: 20.6 µM [inhibitor, single point]

**Q.** With `CCSc1oc(-c2ccccc2)nc1S(=O)(=O)c1ccccc1` as the compound, how does the Potency read?
**A.** inactive

**Q.** Which Potency does the source give for `CC(=O)Oc1ccc(/C(C)=N\N2CCN(Cc3ccc(Cl)cc3)CC2)cc1` here?
**A.** inactive

**Q.** Which Potency does the source give for `COc1ccc2c(c1)C1(Nc3ccccc3-c3nc4ccccc4n31)C(=O)N2C` (stereo unspecified) here?
**A.** active: 20.6 µM

**Q.** With `O=C(c1ccc2c(c1)OCCO2)N1CCN(c2ccccn2)CC1` as the compound, how does the Potency read?
**A.** inactive

**Q.** Which Potency does the source give for `O=C(NNC(=O)c1cccc2ccccc12)c1ccc(Cl)cc1` here?
**A.** inconclusive: 0.0461 µM [inhibitor, full curve, poor fit]

**Q.** With `S=C(NCCc1ccccn1)Nc1cc(Cl)cc(Cl)c1` as the compound, how does the Potency read?
**A.** inactive

**Q.** Which Potency does the source give for `Cc1cccc(C(=O)Nc2ccc(S(=O)(=O)N3CCOCC3)cc2C)c1` here?
**A.** inactive

**Q.** Which Potency does the source give for `COc1ccc(S(=O)(=O)Nc2cccc3c2O[C@H](CN(C)C(=O)Nc2ccc(C(F)(F)F)cc2)[C@@H](C)CN([C@H](C)CO)C3=O)cc1` here?
**A.** inactive

**Q.** For `CCOC(=O)CSc1[nH]c2cc(OC)ccc2c1[N+](=O)[O-]`, which Potency is on record?
**A.** inactive

**Q.** For `Cc1onc(-c2ccccc2)c1C(=O)N/N=C/c1ccc(Br)cc1`, which Potency is on record?
**A.** inactive

**Q.** With `COc1ccc(-c2coc3cc(OC(C)=O)ccc3c2=S)cc1` as the compound, how does the Potency read?
**A.** inconclusive: 29.1 µM [inhibitor, single point]

**Q.** With `CCOC(=O)c1ccc(NS(=O)(=O)c2cc3c(cc2C)n(C)c(=O)c(=O)n3C)cc1` as the compound, how does the Potency read?
**A.** inconclusive: 20.6 µM [inhibitor, single point]

**Q.** Which Potency does the source give for `O=c1[nH]c(C2CCN(S(=O)(=O)c3cccc([N+](=O)[O-])c3)CC2)nc2c1nnn2Cc1ccccc1` here?
**A.** inconclusive: 29.1 µM [inhibitor, single point]

**Q.** Which Potency does the source give for `COC(=O)/C(=C\Nc1ccc(Cl)c2ccccc12)c1ncc(C(F)(F)F)cc1Cl` here?
**A.** inconclusive: 20.6 µM [inhibitor, single point]

**Q.** With `O=C(CNC(=O)c1nc[nH]c1C(=O)NCc1ccccc1)OCc1ccccc1` as the compound, how does the Potency read?
**A.** inconclusive: 2.91 µM [inhibitor, full curve]
